# Measurements: PubChem BioAssay AID1347417 (National Center for Advancing Translational Sciences (NCATS), 2020)
# The campaign covered roughly 120,000 compounds. About 5,300 (4.4%) were called active. The inconclusive results got no clear call from the source; some entries with a clear call stand among them for comparison. The call rests on the fitted dose curve; in most records, active means well fitted inhibition curve with a large enough effect; inconclusive means small, poorly fitted or top-dose-only effect; inactive means no such curve, though single readings can be large or run the other way. Potencies beside an inconclusive call are fits to weak or partial responses and may not hold up.
# Assay: qHTS Primary assay for Inhibitors of Plasmodium falciparum Dd2 growth in vitro; further: nearly all actives have a fitted effect of over 65% in size
# Settings: P. falciparum Dd2 growth, SYBR Green, 72 h; series mostly up to 28.9 µM
# How it was run: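 Readout: SYBR Green fluorescence, 485 nm excitation, 535 nm emission, after ~16 h lysis at 37C. Before that, Dd2-infected red cells (2.5% hematocrit) grew 72 h with compound, 29 uM top final concentration.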
# Potency means the concentration at half of the fitted maximal effect; tags describe the fitted curve by direction and shape.
row,Structure (SMILES),Potency
1,Cc1ccc(-n2c(SCC(=O)NCc3ccccc3)nc3n[nH]c(C)c3c2=N)cc1Cl,"inconclusive: 3.98 µM [inhibitor, partial curve]"
2,Cc1cccc(C(=O)NCCc2ncc(C)n2C2CC2)c1,"inconclusive: 1.12 µM [inhibitor, partial curve]"
3,CC1CCN(c2oc(-c3ccc(COc4ccccc4)o3)nc2C#N)CC1,"inconclusive: 17.8 µM [inhibitor, single point]"
4,CCNC(=O)c1ccc(OC2CCN(C(=O)c3ccnn3C)C2)nc1 (stereo not drawn),inactive
5,O=C1N(Cc2ccccc2F)CCOC12CCN(Cc1ccccc1F)CC2,"inconclusive: 2.24 µM [inhibitor, partial curve, poor fit]"
6,CCc1ccc(-n2c(N3CCN(c4cccc(Cl)c4)CC3)nc3ccccc3c2=O)cc1,"inconclusive: 17.8 µM [inhibitor, single point]"
7,Cc1noc([C@@H]2CN(Cc3ccccc3OC(F)(F)F)C[C@H]2CO)n1,"inconclusive: 17.8 µM [inhibitor, single point]"
8,CCOc1ccc2c(n1)CCN(C(=O)c1cccc(OC)c1OC)C2,"inconclusive: 8.91 µM [inhibitor, partial curve]"
9,COc1ccc(-c2cc(C(F)(F)F)nc(-n3nc(C(F)(F)F)cc3C)n2)cc1,"inconclusive: 12.6 µM [inhibitor, single point]"
10,FC(F)(F)CN1C2CCC1CN(c1cncc(Br)c1)C2,"inconclusive: 11.2 µM [inhibitor, partial curve, poor fit]"
11,CC(C)OCCCNC(=O)C(=O)Nc1ccc2nc3n(c(=O)c2c1)CCCCC3,"inconclusive: 17.8 µM [inhibitor, single point]"
12,NC(=O)c1cccnc1N1CCOC(CC(c2ccccc2)c2ccccc2)C1 (stereo not drawn),active: 7.94 µM
13,O=C(c1nc(-c2ccc(Cl)nc2)c2ccccn12)N1CCN(c2ncccn2)CC1,"inconclusive: 1 µM [inhibitor, partial curve]"
14,CCOc1cccc(C2c3[nH]c4ccccc4c3CCN2C(=O)CCC2CCCC2)c1 (stereo not drawn),"inconclusive: 11.2 µM [inhibitor, single point]"
15,O=C(NCc1ccc(Cl)cc1)c1cc2n(n1)CC(c1ccc(Cl)cc1)OC2 (stereo not drawn),"inconclusive: 17.8 µM [inhibitor, single point]"
16,CSc1ncc(Cl)c(C(=O)Nc2ccc(S(=O)(=O)N3CCCC(C)C3)cc2)n1 (stereo not drawn),"inconclusive: 10 µM [inhibitor, single point]"
17,CCn1nccc1C(=O)N1CCC2(CC1)CC(c1nc(C)no1)N(C)C2 (stereo not drawn),inactive
18,CC(C)(C)CC(=O)N[C@H]1C[C@H]2C(=O)Nc3ccc(-c4ccsc4)cc3C(=O)N2C1,"inconclusive: 7.94 µM [inhibitor, partial curve]"
19,C[S+](=O)([O-])c1ccc(-c2cc(C(=O)NCc3cccnc3)nn3cccc23)cc1,"inconclusive: 7.08 µM [inhibitor, partial curve]"
20,Cc1ccc(NC(=O)CCC2CCN(S(=O)(=O)c3ccccc3C)CC2)cc1F,"inconclusive: 15.8 µM [inhibitor, partial curve, poor fit]"
21,COC(=O)C1=C(C)N=C2SC=C(CC(=O)NC3CC3)N2C1c1ccc(C(C)C)cc1 (stereo not drawn),"inconclusive: 0.178 µM [inhibitor, full curve]"

row,Structure (SMILES),Potency
1,Cc1nn2c(c1-c1ccccc1[S+](C)(=O)[O-])N(Cc1ccc(C(=O)O)s1)CCC2,"inconclusive: 0.631 µM [inhibitor, full curve, poor fit]"
2,COc1cccc(CN(C)Cc2ccc(F)cc2)c1,inactive
3,CN(C1CCOCC1)C1CCN(S(=O)(=O)c2ccccc2)CC1,"inconclusive: 12.6 µM [inhibitor, single point]"
4,Cc1ccc(O[C@H]2COCC[C@H]2NC(=O)c2cc(CC(C)C)nc(N)n2)cn1,inactive
5,CCOC(=O)c1sc2ccccc2c1S(=O)(=O)N1CCN(c2cccc(C)c2C)CC1,"inconclusive: 17.8 µM [inhibitor, single point]"
6,O=C(NCc1cccnc1)C(=O)NCC(c1cccnc1)N1CCN(c2ccccc2F)CC1 (stereo not drawn),"inconclusive: 20 µM [inhibitor, single point]"
7,COc1cccc(N2CCN(C(=O)CCC[C@H]3NC[C@@H]4C[C@H]3CN(Cc3ccccc3)C4)CC2)c1,"inconclusive: 17.8 µM [inhibitor, single point]"
8,CCOc1ccc(S(=O)(=O)c2cn(Cc3ccccc3)c3ccc(OCC)cc3c2=O)cc1,"inconclusive: 12.6 µM [inhibitor, single point]"
9,CC(C)(C)OC(=O)N1CCC(c2c(C(=O)NCc3ccco3)cnn2-c2ccccc2)CC1,active: 10 µM
10,Cc1cccc(C(=O)N2CCN(C(=O)c3nnn4c3COC(c3ccc(Cl)cc3)C4)CC2)c1 (stereo not drawn),"inconclusive: 0.251 µM [inhibitor, partial curve, poor fit]"
11,COc1ccc(CNC(=O)c2cc3cc(S(=O)(=O)N4CCCCC4)ccc3n2C)c(OC)c1,"inconclusive: 14.1 µM [inhibitor, partial curve, poor fit]"
12,O=C1N(Cc2cccc(C(F)(F)F)c2)c2ccccc2S(=O)(=O)N1c1cccc(Cl)c1,"inconclusive: 17.8 µM [inhibitor, single point]"
13,O=C(CCCc1c[nH]c2ccccc12)NCC(=O)N1CCCCCNC(=O)CC1c1ccccc1 (stereo not drawn),"inconclusive: 10 µM [inhibitor, single point]"
14,Cc1ccc(CN2CC(Oc3ccccc3C(=O)N3CCOCC3)C2)cc1C,active: 2.82 µM
15,Cc1c(Cl)cccc1N1C(N)=C(C#N)C(c2cc(CN3CCOCC3)cs2)C2=C1CCCC2=O (stereo not drawn),"inconclusive: 17.8 µM [inhibitor, single point]"
16,CCOC(=O)N1CCc2c(sc(NCc3ccc(N(C)C)cc3)c2C(=O)Nc2ccc(OC)cc2)C1,active: 11.2 µM
17,Cc1ccc(C(=O)N2CCC3(CC2)NC(=O)N(c2ccccc2Cl)N3)cc1,"inconclusive: 10 µM [inhibitor, single point]"
18,COc1cccc(CC(=O)NC2CCN(c3cnn(C)c(=O)c3)CC2)c1,"inconclusive: 6.31 µM [inhibitor, partial curve]"
19,COCCc1nncn1C1CCN(S(=O)(=O)c2ccc(Cl)c(C)c2)CC1,inactive
20,CC1(C)C[C@H](NCc2ccc(CO)o2)[C@@]2(CCC(=O)NCCN3CCOCC3)CC[C@](C)(O)C[C@@H]12,"inconclusive: 0.398 µM [inhibitor, full curve, poor fit]"
21,O=C(CSc1nc2c([nH]c3ccccc32)c(=O)n1-c1ccc(F)cc1)NC1CCCCC1,"inconclusive: 14.1 µM [inhibitor, single point]"

row,Structure (SMILES),Potency
1,CCc1ccccc1NC(=O)CSC1=Nc2ccccc2C2=NC(Cc3ccccc3)C(=O)N12 (stereo not drawn),"inconclusive: 10 µM [inhibitor, single point]"
2,O=C(Cc1cccc(F)c1)N1CCC(n2cnnc2-c2ccccc2)C1 (stereo not drawn),inactive
3,CCOc1ccc(NC(=O)c2c(NCc3sccc3C)sc3c2CCCCC3)cc1,active: 11.2 µM
4,CCN1c2cc(C(=O)N3CCN(c4ccccc4)CC3)ccc2C(=O)N2CCCCCC21 (stereo not drawn),"inconclusive: 8.91 µM [inhibitor, partial curve, poor fit]"
5,COCC1CN(C)CC12CCN(Cc1ccsc1)CC2 (stereo not drawn),"inconclusive: 5.62 µM [inhibitor, partial curve, poor fit]"
6,Cc1cnc(CC2CCNCC2)n1Cc1ccc(F)cc1,"inconclusive: 3.55 µM [inhibitor, partial curve]"
7,CCOc1ccc(-c2cc3c(=O)n(CCNC(=O)c4cccc5[nH]ccc45)ccn3n2)cc1,"inconclusive: 0.891 µM [inhibitor, full curve, poor fit]"
8,CC(=O)N1CC2(CCN(Cc3ccccn3)C2)Cc2ccccc21 (stereo not drawn),inactive
9,CN1CC(=O)N(C2CCNC2)Cc2c(NC3CCCC3)ncnc21 (stereo not drawn),inactive
10,COc1ccc(CNC(=O)c2c(Nc3ccc(OC)cc3OC)sc(C(=O)c3ccc(Cl)cc3)c2N)cc1,inactive
11,CCN1c2ccccc2-c2nc(SCC(=O)Nc3cccc(C(F)(F)F)c3)ncc2S1(=O)=O,"inconclusive: 1.58 µM [inhibitor, partial curve, poor fit]"
12,COC[C@@H]1CN(C(=O)C2CC2)C[C@H]1c1ccncc1,inactive
13,Cc1ccc(C)c(CN2C(=O)c3ccccc3S(=O)c3ccc(C(=O)N4CCC(C)CC4)cc32)c1 (stereo not drawn),inactive
14,COc1ccc(CNc2oc(-c3ccc(COc4ccc(Cl)cc4)o3)nc2C#N)cc1,"inconclusive: 17.8 µM [inhibitor, single point]"
15,COc1ccc(NC(=O)C(C)(C)Oc2nn(C(C)C)c3ccc(CN4CCOCC4)cc23)cc1,inactive
16,O=C1CCN(C(=O)c2ccccc2)CCCC(C(=O)NCCN2CCc3ccccc3C2)CCN1 (stereo not drawn),inactive
17,O=C(COc1ccccc1)N1CCC(Oc2cnc3c(ccn3-c3cncnc3)c2)CC1,inactive
18,CCN1CCN(CCCNC(=O)c2cc3c(=O)n(CC)c4ccccc4c3s2)CC1,"inconclusive: 1.12 µM [inhibitor, single point]"
19,Cc1c(CNCc2ccc(OC(C)C)cc2)c(C(=O)O)c(C)n1Cc1ccc(Cl)cc1,"inconclusive: 11.2 µM [inhibitor, single point]"
20,COc1ccc(N(C(=O)c2ccccc2F)S(=O)(=O)c2ccc3c(c2)n(C)c(=O)n3C)cc1,inactive
21,COc1ccc(C(=O)N[C@H]2[C@H](O)[C@H](O)C[C@@H]2c2ccc(C(F)(F)F)cc2)cc1,"inconclusive: 31.6 µM [inhibitor, single point]"
